# Results taken from PubChem BioAssay AID1259400 (National Center for Advancing Translational Sciences (NCATS), 2018).
# Among all 350,000 compounds or so, about 2,100 (0.6%) were called active. This list was built around the results that the source calls inconclusive (neither active nor inactive); the mix of calls is not that of the screen.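 How the source made its calls: active means activity change of -60% or lower, but not beyond a set lower limit; inconclusive means change between -60% and -40%, or beyond the set limit; inactive means change above -40%.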
# Target: Relaxin receptor 1 (Homo sapiens) (UniProt Q9HBX9)
# Experiment: qHTS Assay for Antagonists of the Relaxin Receptor RXFP1
# Conditions: HEK293-RXFP1, relaxin-stimulated cAMP HTRF, 30 min; at 57.5 µM; stronger effect = lower value
# On the % scale 0 is the no-effect control and ±100 the full control effect.
# Chain of UniProt Q9HBX9 (Q9HBX9 whole entry, looked up): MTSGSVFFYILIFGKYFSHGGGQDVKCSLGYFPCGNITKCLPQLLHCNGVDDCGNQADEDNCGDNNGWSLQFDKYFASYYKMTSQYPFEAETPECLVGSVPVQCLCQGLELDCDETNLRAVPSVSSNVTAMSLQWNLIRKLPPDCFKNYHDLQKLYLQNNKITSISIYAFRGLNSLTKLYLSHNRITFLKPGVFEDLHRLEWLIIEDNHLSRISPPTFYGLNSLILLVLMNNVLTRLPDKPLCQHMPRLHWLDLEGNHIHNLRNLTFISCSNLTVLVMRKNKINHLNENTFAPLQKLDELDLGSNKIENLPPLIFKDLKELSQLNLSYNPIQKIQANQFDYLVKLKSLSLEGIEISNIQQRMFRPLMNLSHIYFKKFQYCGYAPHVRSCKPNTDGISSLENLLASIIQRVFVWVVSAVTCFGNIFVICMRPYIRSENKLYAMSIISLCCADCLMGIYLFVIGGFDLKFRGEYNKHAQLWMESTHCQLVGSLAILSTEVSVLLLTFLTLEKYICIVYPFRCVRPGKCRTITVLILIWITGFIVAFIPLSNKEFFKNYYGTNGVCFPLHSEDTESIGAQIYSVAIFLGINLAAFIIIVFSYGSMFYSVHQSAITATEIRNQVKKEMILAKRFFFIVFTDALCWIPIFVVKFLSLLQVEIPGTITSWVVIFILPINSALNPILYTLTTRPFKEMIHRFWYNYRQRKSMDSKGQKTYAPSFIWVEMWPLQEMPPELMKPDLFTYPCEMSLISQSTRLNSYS
row,SMILES,"activity change, negative = inhibition"
1,O=C1NC(=O)N(CCc2ccc(F)cc2)C(=O)/C1=C/c1cccs1,inconclusive: -42%
2,O=C(Cn1cnc2ccccc2c1=O)NCCC(=O)N1CCC2(CC1)OCCO2,inactive: 6.55%
3,Cc1ccc(-n2c(C)cc(/C=C3/C(=O)NC(=O)N(Cc4ccco4)C3=O)c2C)cc1,inconclusive: -52%
4,Cc1cccc(N2C(=O)NC(=O)/C(=C\c3cccn3-c3ccc(Cl)cc3)C2=O)c1,active: -70.9%
5,c1cncc(CNCCN2CCNCC2)c1,inactive: 4.25%
6,O=C(Cc1cc(=O)oc2cc(O)ccc12)NN=Cc1ccc(N(CCCl)CCCl)cc1,inconclusive: -52.5%
7,O=C1NC(=O)N(Cc2ccccc2)C(=O)/C1=C/C=C/c1ccco1,inconclusive: -49.4%
8,CCc1ccc(CN2CCN(Cc3ccc(SC)cc3)CC2)cc1,active: -61.9%
9,Cc1ccc(C)c(NC(=O)CSc2nnc([C@@H](N)Cc3c[nH]c4ccccc34)o2)c1,inactive: 2.38%
10,CCOC(=O)c1c(NC(NC(=O)CF)C(Cl)(Cl)Cl)sc2c1CCCC2 (stereo not given),active: -61%
11,FC(F)(F)c1ccc2c(c1)ncn2C1CCN(Cc2nnnn2C2CCCCC2)CC1,active: -74.2%
12,FC(F)(F)c1ccccc1CNCCc1c[nH]c2ccccc12,active: -101%
13,CC/C(=C\C=C\[C@@H]1C=C[C@@H]2CCC[C@H]2[C@@H]1C(=O)c1ccc[nH]1)[C@@H]1O[C@@H]([C@@H](C)C(=O)O)CC[C@@H]1C,inconclusive: -43.7%
14,Cc1cccc(N2C(=O)NC(=O)/C(=C\c3cnn(-c4ccccc4)c3)C2=O)c1,active: -97.1%
15,Cc1ccc(S(=O)(=O)N2CN3CCN(C3)C2)cc1,inactive: -4.95%
16,O=C(N/N=C/c1c(O)n(C2CCCCC2)c(=S)[nH]c1=O)c1ccccc1O,inconclusive: -45%
17,CCOc1ccc(-c2cc(C)[n+](CCc3ccc(OC)c(OC)c3)c(-c3ccc(OCC)cc3)c2)cc1,active: -84.3%
18,CCCCCCCSc1cc(OC)c(CCN(C)C)cc1OC,inconclusive: -57.3%
19,CCCCCCCCCCCCn1ccc(=N)cc1,active: -73.7%
20,O=C1NC(=S)NC(=O)C12C(c1ccccc1)NC(=S)NC2c1ccccc1 (stereo not given),inactive: -7.57%
21,O=S(=O)(c1ccc(Cl)cc1)c1ccc(Cl)cc1,inconclusive: -55.3%
22,Cc1cccc(N2C(=O)NC(=O)/C(=C\c3cc(C)n(-c4sc5c(c4C#N)CCCC5)c3C)C2=O)c1C,inconclusive: -42.8%

row,SMILES,"activity change, negative = inhibition"
1,CCCSc1nc2ccccc2c(=O)n1-c1ccccc1OC,inconclusive: -42.5%
2,CC(C)(C)c1ccc(OC(=O)N2CCCCC2)cc1,inconclusive: -42.6%
3,CCN(C(=O)CN1CC=C(c2ccccc2)CC1)c1c(N)n(Cc2ccccc2)c(=O)[nH]c1=O,active: -61%
4,CC(Cc1ccccc1)NC(=O)c1ccc(N)cc1 (stereo not given),inactive: 4.17%
5,O=C1NC(=O)C(=Cc2ccc(SC3CCCCC3)o2)C(=O)N1,inconclusive: -53.2%
6,C[n+]1c(-c2ccccc2)cc(-c2ccc(O)cc2)cc1-c1ccccc1,inconclusive: -42.8%
7,C[C@@H]1O[C@@H](O[C@@H]2C=C3CC[C@@H]4[C@H](CC[C@]5(C)[C@@H](c6ccc(=O)oc6)CC[C@]45O)[C@@]3(C)CC2)[C@H](O)[C@H](O)[C@H]1O,inconclusive: -44.9%
8,O=C1NC(=O)N(Cc2ccc(F)cc2)C(=O)/C1=C\C=C\c1ccco1,active: -69.7%
9,CCOc1ccc(-c2c(C)n(-c3ccc(OCC)cc3)c3[n+]2CCCCC3)cc1,inconclusive: -59.6%
10,O=c1[nH]c2ccccc2n1C1CCN(CCCC(c2ccc(F)cc2)c2ccc(F)cc2)CC1,active: -67.8%
11,CC(C)c1ccc(N2C(=O)NC(=O)/C(=C/C=C/c3ccco3)C2=O)cc1,active: -80.3%
12,COC(=O)CC1=C(C(=O)OC)C2(C(=O)Nc3c(C)cccc32)C(C#N)=C(N)O1 (stereo not given),inactive: -6.18%
13,O=P(Oc1ccccc1)(Oc1ccccc1)N1CCN(c2ccc(F)cc2)CC1,inconclusive: -41.3%
14,COc1ccc(CN2CCCC(C(=O)c3ccc(Cl)cc3)C2)c(OC)c1 (stereo not given),inconclusive: -46.7%
15,CN1C(=O)/C(=C/c2cccn2-c2ccc3ccccc3c2)C(=O)NC1=S,active: -97%
16,O=C1NC(=O)N(Cc2ccco2)C(=O)/C1=C\c1cccn1CCOc1ccc(Cl)cc1,inconclusive: -40.5%
17,CC[n+]1c(-c2ccccc2)c2cc(N)ccc2c2ccc(N)cc21,inconclusive: -53.1%
18,CCN(CCCl)c1cc(CN(C)C)cc(NC(=O)c2ccc(C(=O)Nc3cc(CN(C)C)cc(N(CC)CCCl)c3)cc2)c1,inconclusive: -50.6%
19,Cn1cccc1/C=C1/C(=O)NC(=S)N(Cc2ccc(F)cc2)C1=O,active: -68.7%
20,Cc1ccccc1CN1C(=O)CN=C(c2ccccc2)c2cc(Cl)ccc21,active: -95.5%
21,Cc1cccc(OCCn2cccc2/C=C2/C(=O)NC(=O)N(Cc3ccco3)C2=O)c1,active: -68.2%
22,CCC(C)N1C(=O)NC(=O)C2(Cc3c(ccc4ccccc34)N(C)C2)C1=O (stereo not given),inconclusive: -50.2%

row,SMILES,"activity change, negative = inhibition"
1,CCN(CC)C(=O)Cn1cc(/C=C2\C(=O)NC(=O)N(c3ccccc3F)C2=O)c2ccccc21,inconclusive: -43.4%
2,CCCCn1c(=O)c(C=Nc2ccc(Cl)cc2)c(O)n(Cc2ccco2)c1=O,inconclusive: -54.2%
3,CCCN(CCC)c1c([N+](=O)[O-])cc(S(N)(=O)=O)cc1[N+](=O)[O-],active: -73.5%
4,CC(=O)NC1CCSC1=O (stereo not given),inactive: -1.66%
5,N#CSCC(=O)N1c2ccccc2CCc2ccccc21,inconclusive: -59.5%
6,CCCCCCCCCC(CC)c1ccc(S(=O)(=O)O)cc1 (stereo not given),inconclusive: -46.3%
7,Cc1ccc(OCCn2cccc2/C=C2/C(=O)NC(=O)N(Cc3ccco3)C2=O)cc1,inconclusive: -45.1%
8,CC1CCN(C(=O)COC(=O)c2cn(C)c3ccccc23)CC1,inactive: 9.19%
9,c1ccc(C(c2ccccc2)c2ccncc2)cc1,inconclusive: -46.7%
10,C[C@]12CC[C@H]3[C@@H](CCC4=CC(=O)CC[C@@H]43)[C@@H]1CC[C@@H]2OC(=O)CCc1ccco1,inconclusive: -46.6%
11,COc1cc(OC)c(OC)cc1/C=C1/C(=O)NC(=O)N(Cc2ccccc2)C1=O,active: -63.6%
12,CCn1c(O)c(C=NCc2ccccc2)c(=O)[nH]c1=S,inconclusive: -58%
13,OCC[n+]1c2ccccc2nc2ccc(N3CCOCC3)cc21,inconclusive: -51.8%
14,C[C@]12C/C(=C/O)C(=O)C[C@@H]1CC[C@@H]1[C@@H]2CC[C@@]2(C)[C@H]1CC[C@]2(C)O,active: -99.1%
15,CNC(=O)Oc1cc2c(cc1C(C)(C)C)CCC2,active: -85.8%
16,CCOC(=O)C1(CCc2ccccc2)CCN(Cc2cccc3c2OCO3)CC1,inconclusive: -46.1%
17,CCC1(CC(C)c2ccccc2)C(=O)NC(=O)NC1=O (stereo not given),active: -60.5%
18,CCOP(=S)(OCC)Oc1ccc2c(C)c(Cl)c(=O)oc2c1,inconclusive: -46.1%
19,c1ccc(C(c2ccccc2)c2cccnc2)cc1,inconclusive: -46.5%
20,COc1ccc(C(c2ccc(OC)cc2)C(Cl)(Cl)Cl)cc1,active: -93.5%
21,O=C1NC(=O)N(Cc2ccco2)C(=O)/C1=C/c1cccn1CCOc1ccccc1Cl,active: -61%
22,COc1ccccc1N1C(=O)NC(=O)/C(=C\c2cnn(-c3ccccc3)c2)C1=O,inconclusive: -49.7%

row,SMILES,"activity change, negative = inhibition"
1,O=C1NC(=O)N(CCC2=CCCCC2)C(=O)/C1=C\c1cccs1,inconclusive: -44.7%
2,COc1cc2[nH]c(C(=O)N3CCC4(CC3)OCCO4)cc2c(OC)c1OC,inconclusive: -46%
3,Cc1ccc(CN2C(=O)c3ccccc3Sc3ccc(C(=O)N4CCC5(CC4)OCCO5)cc32)cc1,inconclusive: -42.7%
4,CCCCC/C=C\C/C=C\C/C=C\C/C=C\CCCC(=O)NCC(=O)O,inconclusive: -47.1%
5,O=C(N[C@H]1N=C(c2ccccc2F)c2cccc3c2N(CC3)C1=O)c1cc2ccccc2[nH]1,inactive: -22.6%
6,COc1cc(CN2C(=O)NC(=O)C3(Cc4cc(C)ccc4N(C)C3)C2=O)cc(OC)c1 (stereo not given),inactive: 10.4%
7,S=C1CN=C(c2ccccc2)c2cc(Cl)ccc2N1,active: -111%
8,COc1ccc2c(c1)C(c1ccc(N(CCCl)CCCl)cc1)=NCC2,inconclusive: -59.5%
9,O=C1CC(c2cccnc2)=NN1c1ccc(Cl)cc1Cl,inconclusive: -44.6%
10,COc1ccc(-n2c(/C=C\c3ccccc3F)nc3ccccc3c2=O)cc1OC,inconclusive: -53.9%
11,CCN(CC)c1ccc(CN2CC=C(c3ccc(F)cc3)CC2)cc1,inconclusive: -48.8%
12,COC(=O)C(O)(c1ccc(NC(=O)c2ccccc2)cc1)C(F)(F)F (stereo not given),inactive: -3.33%
13,CCC(=O)O[C@H]1CC[C@H]2[C@@H]3CCC4=CC(=O)CC[C@]4(C)[C@H]3CC[C@]12C,active: -68%
14,O=C(CNC(=O)c1cccc(Cl)c1)Nc1ccc(Br)cc1C(=O)c1ccccc1,inactive: -5.35%
15,O=C1NC(=O)N(Cc2ccccc2)C(=O)/C1=C\C=C\c1ccco1,inconclusive: -42.9%
16,CCCCn1c(O)c(/C=N/N2CCOCC2)c(=O)[nH]c1=S,inactive: -4.21%
17,O=C1NC(=O)N(Cc2ccco2)C(=O)/C1=C\c1ccc(-c2ccc(F)cc2)o1,active: -116%
18,N#CC(C#N)=NNc1ccc(-n2ccc(C(F)(F)F)n2)cc1,inconclusive: -47.9%
19,COc1ccc(CNCCc2c(C)[nH]c3ccc(OC(F)(F)F)cc23)c(OC)c1,active: -83.4%
